Some test systems named below: MZ2-MEL; MeWo; RPMI7951; RVH-421; SkMel28; SkMel2; SkMel30; SkMel5; UACC257; UACC62.
Holding throughout (assay): cell count relative to DMSO control; melanoma cells; higher = more viable cells
What all share (conditions): library dose: low library concentration; 72 h

The other results are listed elsewhere or left out. Many values rest on one well or one pass, so single values are uncertain.
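Further: cell number obtained by counting DAPI-stained nuclei in high-throughput microscope images with image analysis software, screen run in 1,536-well plates.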

On to `Cn1c(=O)n(-c2ccc(C(C)(C)C#N)cc2)c2c3cc(-c4cnc5ccccc5c4)ccc3ncc21` + C[C@@H]1CCN(C(=O)CC#N)C[C@@H]1N(C)c1ncnc2[nH]ccc12 [CP690550] (first compound 0.004 µM, partner dose 1 µM), for which the cell count in the test with MZ2-MEL came out at 106%; with MeWo, 90.3%; in the test with RPMI7951, 113%; in the test on RVH-421, 87%; in the test on SkMel28, 92.8%; in the test on SkMel2, 95.1%. In addition, the cell count in the test on SkMel30 was found to be 79.5%; in the test with SkMel5, 109%; in the test with UACC257, 91.6%; in the test on UACC62, 120%.
Turning to `CC(C)C[C@H](NC(=O)[C@H](Cc1ccccc1)NC(=O)c1cnccn1)B(O)O` [Bortezomib] + CC(C)(C)c1cnc(CSc2cnc(NC(=O)C3CCNCC3)s2)o1 [SNS-032] (first compound 0.001 µM, partner dose 0.01 µM), the cell count with MZ2-MEL was determined as 70.6%; with MeWo it was 90%; with RPMI7951 it was 53.4%; with RVH-421 it was 74.5%; with SkMel28 it was 91.7%; with SkMel2, 97.5%. The cell count worked out at 105% in the test with SkMel30, 116% in the test on SkMel5, 90% in the test on UACC257 and 86.7% with UACC62.
Regarding `CC(C)C[C@H](NC(=O)[C@H](Cc1ccccc1)NC(=O)c1cnccn1)B(O)O` [Bortezomib] + Cc1ccc(NC(=O)c2cccc(N(C)C)c2)cc1NC(=O)c1ccc(O)cc1 [ZM336372] (first compound 0.001 µM, partner dose 2 µM), the cell count was found to be 43.1% with MZ2-MEL; 86.6% with MeWo; 75.5% in the test with RPMI7951; 52.1% in the test on RVH-421; 93.3% with SkMel28; 114% in the test on SkMel2. For the same compound, the cell count amounted to 95.9% in the test on SkMel30, 85.7% in the test with SkMel5, 65.8% with UACC257 and 69.2% with UACC62.
Take `CC(C)C[C@H](NC(=O)[C@H](Cc1ccccc1)NC(=O)c1cnccn1)B(O)O` [Bortezomib] + O=C(Nc1cccc(Cl)c1)Nc1ncc(CCNc2ncnc3ccsc23)s1 [SNS314] (first compound 0.001 µM, partner dose 0.0008 µM): the cell count with MZ2-MEL was determined as 89%; with MeWo, 93.8%; in the test on RPMI7951, 81.5%; with RVH-421 it was 58.4%; in the test with SkMel28, 92%; in the test with SkMel2 it was 110%. Also, the cell count was determined as 84.3% with SkMel30, 96.3% with SkMel5, 66.6% in the test with UACC257 and 73.9% with UACC62.
As for `COc1ccc(C2=N[C@@H](c3ccc(Cl)cc3)[C@@H](c3ccc(Cl)cc3)N2C(=O)N2CCNC(=O)C2)c(OC(C)C)c1` [Nutlin-3] + COC(=O)c1sccc1S(=O)(=O)Nc1ccc(Nc2ccccc2)cc1OC [GSK0660] (first compound 0.1 µM, partner dose 1 µM), the cell count is 98.4% in the test with MZ2-MEL; 111% with MeWo; 119% in the test on RPMI7951; 69.8% in the test with RVH-421; 92.8% in the test with SkMel28; 97% with SkMel2. For the same compound, the cell count with SkMel30 was found to be 111%; in the test on SkMel5, 95.1%; in the test on UACC257 it was 109%; in the test with UACC62, 74.6%.
With `CC(C)C[C@H](NC(=O)[C@H](Cc1ccccc1)NC(=O)c1cnccn1)B(O)O` [Bortezomib] + COc1cc(Nc2ncc(F)c(Nc3ccc4c(n3)NC(=O)C(C)(C)O4)n2)cc(OC)c1OC [Tamatinib] (first compound 0.001 µM, partner dose 0.4 µM), the cell count was found to be 74.4% in the test with MZ2-MEL; 86.7% in the test with MeWo; 101% in the test with RPMI7951; 60% in the test with RVH-421; 95.4% in the test on SkMel28; 99.8% with SkMel2. The cell count in the test with SkMel30 worked out at 105%; in the test with SkMel5 it was 86.8%; with UACC257, 67.2%; in the test with UACC62, 90%.
Turning to `Cn1c(=O)n(-c2ccc(C(C)(C)C#N)cc2)c2c3cc(-c4cnc5ccccc5c4)ccc3ncc21` + COc1cc(Nc2ncc(F)c(Nc3ccc4c(n3)NC(=O)C(C)(C)O4)n2)cc(OC)c1OC [Tamatinib] (first compound 0.004 µM, partner dose 0.4 µM), the cell count in the test with MZ2-MEL was 95.4%; with MeWo, 80.7%; in the test with RPMI7951 it was 77.7%; with RVH-421, 99.7%; in the test on SkMel28 it was 47.9%; in the test on SkMel2 it was 90.7%. For the same compound, the cell count with SkMel30 is 85.3%; in the test with SkMel5, 85.1%; with UACC257 it was 60.6%; with UACC62, 69.4%.
For the compound `COc1ccc(C2=N[C@@H](c3ccc(Cl)cc3)[C@@H](c3ccc(Cl)cc3)N2C(=O)N2CCNC(=O)C2)c(OC(C)C)c1` [Nutlin-3] + CN(C)S(=O)(=O)c1ccc2c(c1)/C(=C/c1cc3c([nH]1)CCCC3)C(=O)N2 [SU6656] (first compound 0.1 µM, partner dose 0.4 µM), the cell count is 109% in the test on MZ2-MEL; 92% with MeWo; 122% with RPMI7951; 100% with RVH-421; 94.5% in the test on SkMel28; 113% in the test on SkMel2. The cell count with SkMel30 came out at 105%; with SkMel5 it was 89.8%; in the test with UACC257 it was 85.2%; in the test on UACC62, 83.9%.
Turning to `Cn1c(=O)n(-c2ccc(C(C)(C)C#N)cc2)c2c3cc(-c4cnc5ccccc5c4)ccc3ncc21` + CCN(CC)CCCCNc1ncc2cc(-c3cc(OC)cc(OC)c3)c(NC(=O)NC(C)(C)C)nc2n1 [PD173074] (first compound 0.004 µM, partner dose 0.1 µM), the cell count in the test on MZ2-MEL was 92.7%; with MeWo, 83.1%; with RPMI7951 it was 98.4%; in the test on RVH-421, 95.4%; with SkMel28, 82.6%; in the test on SkMel2, 88.5%. The cell count with SkMel30 was 75.7%; in the test with SkMel5, 111%; in the test on UACC257, 117%; with UACC62, 70.8%.
As for `Cc1cc(Nc2cc(N3CCN(C)CC3)nc(/C=C/c3ccccc3)n2)n[nH]1` + O=C(CCCCCCC(=O)Nc1ccccc1)NO [vorinostat] (first compound 0.04 µM, partner dose 0.08 µM), the cell count is 105% with MZ2-MEL; 92% in the test with MeWo; 93% with RPMI7951; 94.2% in the test with RVH-421; 77.8% in the test with SkMel28; 97.9% in the test with SkMel2. In addition, the cell count stood at 112% in the test on SkMel30, 82.3% in the test with SkMel5, 87.2% with UACC257 and 85% in the test with UACC62.
Turning to `Cn1c(=O)n(-c2ccc(C(C)(C)C#N)cc2)c2c3cc(-c4cnc5ccccc5c4)ccc3ncc21` + c1cc(-c2cnn3cc(-c4ccc(OCCN5CCCCC5)cc4)cnc23)ccn1 [Dorsomorphin] (first compound 0.004 µM, partner dose 0.4 µM), the cell count in the test with MZ2-MEL was 96%; in the test with MeWo, 72.7%; with RPMI7951, 78.7%; in the test with RVH-421 it was 103%; with SkMel28, 73.5%; with SkMel2 it was 102%. The cell count worked out at 75.7% in the test on SkMel30, 101% with SkMel5, 85.5% with UACC257 and 86.8% in the test with UACC62.
